# Data: PubChem BioAssay AID488969 (Vanderbilt High Throughput Screening Facility, 2010)
# The full ranking holds about 110,000 compounds; the median of “z-score” is about -0.1, and the highest 2% start at about 2. The list shows a part of the results.
# Molecular target: Metabotropic glutamate receptor 8 (Rattus norvegicus) (UniProt P70579)
# Assay: rat mGluR8 modulators via GIRK flux, primary screen, cell-based, thallium flux, HTS (AID 488969)
# Conditions: HEK293 rat mGluR8, GIRK (G protein-gated inwardly rectifying potassium channel) thallium flux, FluoZin2; at 10 µM; stronger effect = higher value; submaximal glutamate (EC20) added with thallium
# Sequence of UniProt P70579 (P70579 whole entry, looked up): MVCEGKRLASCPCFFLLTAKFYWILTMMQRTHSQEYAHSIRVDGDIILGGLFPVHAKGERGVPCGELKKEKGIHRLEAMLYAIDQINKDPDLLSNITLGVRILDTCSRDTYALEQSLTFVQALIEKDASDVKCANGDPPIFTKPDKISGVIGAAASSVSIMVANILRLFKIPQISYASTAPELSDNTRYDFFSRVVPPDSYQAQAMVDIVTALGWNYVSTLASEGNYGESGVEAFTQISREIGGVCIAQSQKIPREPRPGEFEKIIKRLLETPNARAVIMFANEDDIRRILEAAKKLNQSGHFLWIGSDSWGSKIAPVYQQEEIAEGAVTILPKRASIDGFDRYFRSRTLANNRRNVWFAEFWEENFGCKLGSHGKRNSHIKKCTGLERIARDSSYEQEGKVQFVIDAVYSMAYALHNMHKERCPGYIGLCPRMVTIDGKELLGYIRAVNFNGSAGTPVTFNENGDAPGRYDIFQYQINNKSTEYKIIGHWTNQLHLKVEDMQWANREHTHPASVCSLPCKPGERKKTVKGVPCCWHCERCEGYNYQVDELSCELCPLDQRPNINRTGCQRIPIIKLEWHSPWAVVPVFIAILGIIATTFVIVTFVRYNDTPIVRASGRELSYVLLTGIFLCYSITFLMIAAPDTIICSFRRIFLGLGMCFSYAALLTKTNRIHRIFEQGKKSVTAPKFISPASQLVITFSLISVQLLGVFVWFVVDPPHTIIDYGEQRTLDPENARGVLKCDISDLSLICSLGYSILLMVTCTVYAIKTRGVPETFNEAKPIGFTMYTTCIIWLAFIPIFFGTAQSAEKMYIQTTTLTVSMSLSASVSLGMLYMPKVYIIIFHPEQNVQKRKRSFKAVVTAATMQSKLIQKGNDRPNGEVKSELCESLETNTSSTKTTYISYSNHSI
row,SMILES,z-score
1,O=C(CCc1[nH]c2ccccc2c1Sc1ccccc1)NCCO,1.09
2,CC(C)(C)NC(=O)CC(CC(=O)O)c1ccccc1 (stereo unspecified),-0.6
3,CCOC(=O)C1=C(N)n2c(s/c(=C\c3ccco3)c2=O)=C(C(=O)OC(C)C)C1c1ccco1 (stereo unspecified),-0.118
4,Cn1c(=O)c2c(ncn2CC(=O)OCC(=O)Nc2cc(Cl)ccc2Cl)n(C)c1=O,0.0725
5,CCOc1ccc(C(=O)OCC(=O)Nc2cc(C)on2)cc1OCC,0.224
6,Cc1nn(CC#N)c(=O)n1-c1ccc(F)cc1,0.483
7,CCc1nc(Cl)c(C#N)c2c1CSC(C)(C)C2,-1.75
8,O=C(CSc1nnc(-c2ccccc2)n1C1CCCCC1)N1CCCC1,0.42
9,CC1CC(C)CN(C(=O)C(NS(=O)(=O)c2ccc(Br)s2)c2ccccc2)C1 (stereo unspecified),0.702
10,CC(C)(C)NC(=O)Cn1nnc(-c2ccc(Cl)cc2)n1,-0.11
11,CN(/C=C/C(=O)C(F)(F)C(F)(F)F)Cc1ccccc1,0.0741
12,C/C(N)=C(/C#N)C(=O)CSc1nc2ccccc2c(=O)n1CCCOC(C)C,0.998
13,Cc1cccc(-c2cc3nc4c(c(N5CCOCC5)n3n2)CCCC4)c1,-0.292
14,O=C(CSc1nnc2c3c4c(sc3ncn12)CCCC4)NCc1ccco1,-1.13
15,CCCOc1ccc(-c2cnc(N)s2)cc1,0.0244
16,CC(=O)CCc1c(C)[nH]c2ccccc2c1=O,-0.0605
17,CCSC1(SCC)N=C(N)C2(C#N)C(c3ccc(F)cc3)C12C#N (stereo unspecified),-0.269
18,O=C(c1cc([N+](=O)[O-])cc([N+](=O)[O-])c1)N(c1ccccn1)c1ccccn1,-0.0137
19,O=C(OCC(=O)N1CCc2ccccc21)c1cccc(S(=O)(=O)N2CCCc3ccccc32)c1,-0.134
20,OC(CNCc1ccccn1)c1ccccc1 (stereo unspecified),-0.286
21,COc1ccc(NC(=O)C2CCCN2S(=O)(=O)c2ccc(F)cc2)cc1 (stereo unspecified),-0.0947
22,Cc1cccc(CN2CCN(CC(=O)N3CCCC3)C2=O)c1,-0.106
23,CN(C)c1ccc(NC(=O)c2ccncc2)c2ccccc12,-0.372
24,CN(C1CCCCC1)S(=O)(=O)c1ccc(NC(=O)c2ccc(Br)o2)cc1,-0.647

row,SMILES,z-score
1,COc1ccc([N+](=O)[O-])c2c(=O)ccoc12,-0.518
2,Cc1cc(COc2ccccc2OCCN2CCN(C)CC2)no1,0.0946
3,Cc1ccc(-c2nnc(SCC(=O)NC3CCS(=O)(=O)C3)nc2-c2ccc(C)cc2)cc1 (stereo unspecified),-0.133
4,Cc1cc(=O)oc2cc(OS(C)(=O)=O)ccc12,-0.824
5,CCc1nc(SCC(=O)NCc2ccco2)c2c(=O)n(C)c(=O)n(C)c2n1,0.725
6,O=C1CC(=O)N(Cc2ccco2)C(=S)N1,-0.111
7,Cc1nc2ccccc2cc1C(=O)N/N=C/c1ccco1,0.211
8,Nc1nc(C23CC4CC(CC(C4)C2)C3)cs1,-0.25
9,COc1ccc(CNC(=O)C(c2ccncc2)N(C(=O)Cc2cccs2)c2ccccc2)cc1 (stereo unspecified),-0.236
10,CCOc1cc(CNc2ccc3c(c2)OCCO3)cc(Br)c1OC,1.22
11,CCc1nnc(NC(=O)C2COc3ccccc3O2)s1 (stereo unspecified),0.0066
12,Cc1ccc(-c2noc(CCC(=O)NCC3CCN(Cc4cccc(C)c4)CC3)n2)cc1,2.64
13,CCN1CCN(CCNC(=O)c2cn(C(C)c3ccccc3F)nn2)CC1 (stereo unspecified),0.0678
14,CN(C)/C=N/c1ncc(C(=O)c2ccc3ccccc3c2)s1,-0.355
15,COc1ccc2[nH]cc(C(=O)N3CCCCC3)c(=O)c2c1,-0.07
16,COc1ccc2c(c1)nc(SCC(=O)C(C)(C)C)n2C,-0.0964
17,O=C(COC(=O)c1c2c(nc3ccccc13)CCCC2)c1ccc(Br)s1,-0.0387
18,CCN1CCCC1CNC(=O)Cn1cnc2sc(C)c(S(=O)(=O)N3CCC(C)CC3)c2c1=O (stereo unspecified),-0.21
19,CCn1c(C)cc(/C=C2\NC(=O)N(CC(=O)Nc3cccc(C)c3)C2=O)c1C,-0.0332
20,CCO/N=C(/c1nonc1N)N1CCN(c2ccc([N+](=O)[O-])cc2)CC1,0.74
21,CCn1c(CSCc2ccc(C)cc2)nnc1SCC(=O)N1CCN(c2ccccc2)CC1,-0.28
22,O=c1n(-c2ccccc2)c(=O)n(Cc2ccccn2)n1Cc1ccccn1,0.0222
23,Cc1ccc(S(=O)(=O)C2(C(=O)N3CCN(C4CCCCC4)CC3)CC2)cc1,-0.279
24,CCOC(=O)NC(NC(=S)Nc1ccc(OCC)cc1)C(Cl)(Cl)Cl (stereo unspecified),-0.0639

row,SMILES,z-score
1,COC(=O)C(CCSC)NC(=O)c1cc2c(n(-c3ccccc3)c1=O)CC(C)(C)CC2=O (stereo unspecified),0.95
2,CC1CCCC(C)N1C(=O)c1cc(F)c(F)cc1Cl (stereo unspecified),-0.11
3,COc1ccccc1NC(=O)NCc1ccc2c(c1)OCO2,0.532
4,Cc1cc(C)cc(N2C(=O)CC(n3ccnc3)C2=O)c1 (stereo unspecified),0.088
5,COc1cccc(CN2CCCN(S(=O)(=O)c3ccc(Br)cc3)CC2)c1,-0.778
6,O=C(Nc1cccc(-c2cnc3ccccc3n2)c1)c1ccco1,-2.07
7,O=C(Nc1ccccn1)c1ccc(=O)[nH]n1,0.0504
8,COc1ccc(C2CC(c3ccccc3)=NN2C(=O)CSc2nccc(=O)[nH]2)cc1 (stereo unspecified),-0.737
9,Nc1ccccc1S(=O)(=O)NC1=NCCCCC1,-0.00421
10,N#C/C(=C(\O)Cc1ccccc1)c1nc2ccccc2[nH]1,-0.0506
11,CN(Cc1cccs1)C(=O)CSc1nnnn1C,0.0544
12,Cc1ccc(S(=O)(=O)N2CCCCC2C(=O)N2CCN(Cc3ccccc3)CC2)cc1 (stereo unspecified),-0.926
13,Cc1cc(Cl)c(S(=O)(=O)Nc2ccc(Cl)cn2)cc1OCC(N)=O,0.203
14,COC(=O)Nc1sc(C(=O)N(C)C)c(C)c1C(=O)OC,0.175
15,O=C(Cc1ccccc1)Nc1ccccc1C(=O)Nc1ccccc1,-0.133
16,COCCn1c(SCC(=O)Nc2nnc(C)s2)nnc1-c1c[nH]c2ccccc12,-0.286
17,CC1(C)CC(=O)C2=C(C1)N(Cc1ccccc1)C(=O)C2(O)C(F)(F)F (stereo unspecified),-1.97
18,O=S(=O)(c1ccc(N2CCOCC2)nc1)N1CCOCC1,-0.208
19,COC(=O)N/N=C/c1ccc(-c2ccc(Cl)c(Cl)c2)o1,0.0264
20,Cc1ccc(Nc2ccc(S(=O)(=O)N3CCOCC3)cc2[N+](=O)[O-])c(C)c1,1.29
21,COc1cccc(-n2c(C)c(C(C)=O)c(C(C)=O)c2C)c1,0.532
22,Cc1ccc2nc(NC(=O)C3CCN(S(=O)(=O)c4cc([N+](=O)[O-])ccc4Cl)CC3)sc2c1,0.225
23,CC(=NCc1ccco1)c1c(C(F)(F)F)[nH]n(-c2nc3ccccc3s2)c1=O,0.261
